From PubChem BioAssay AID686978 (National Center for Advancing Translational Sciences (NCATS), 2013)
The campaign covered roughly 420,000 compounds. About 64,000 (15%) were called active. This list was built around the results that the source calls inconclusive (neither active nor inactive); the mix of calls is not that of the screen. Calls follow the shape of the dose curve; as a rule, active = well fitted inhibition curve with a large enough effect; inconclusive = small, poorly fitted or top-dose-only effect; inactive = flat fitted curve, though single readings scatter. No potency is given beside an inconclusive call; the fits are too rough.

Assay: qHTS for Inhibitors of human tyrosyl-DNA phosphodiesterase 1 (TDP1): qHTS in cells in absence of CPT; also: nearly all actives have a fitted effect of over 55% in size
Settings: DT40 Tdp1-/- hTDP1 cells, no CPT, ATP luminescence, 48 h; activity change, negative = growth inhibition: at 46.2 µM (top of the series) unless noted
How it was run: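 Chicken DT40 Tdp1-/- cells stably complemented with human TDP1 were seeded at 400 cells/well with DMSO in place of 20 nM camptothecin. After compound pinning, cells grew at least 48 hr at 37 °C; viability read by CellTiter-Glo luminescence.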
% is scaled to controls: 0 for no effect and ±100 for the full control effect; potency is read from the fitted curve at half-maximal effect; tags tell the direction and shape of the fitted curve.

Structure (SMILES) | Potency | activity change, negative = growth inhibition
CCOC(=O)c1cc(-c2ccc(OC(F)F)cc2)nc2nc(SC)[nH]c(=O)c12 | inconclusive [inhibitor, single point] | –
O=S(=O)(c1ccc(F)cc1)N1CCc2ccccc2C1 | – | inactive: -14.7%
O=C(Nc1ccc2nc(-c3ccco3)c(-c3ccco3)nc2c1)N1CCN(c2ccccn2)CC1 | active: 11.6 µM | –
CCc1ccc(Nc2nnc(SCC(=O)c3c(N)n(C4CC4)c(=O)[nH]c3=O)s2)cc1 | – | inactive: -18.5%
CCOC(=O)C1=C(C)NC2=C(C(=O)CC(C)(C)C2)C1c1ccc2c(c1)CCCN2C (stereo not drawn) | – | inactive: -18.7%
Cc1ccc(S(=O)(=O)c2ccc(NC(=O)c3c(F)cccc3F)cc2)cc1 | inconclusive [inhibitor, partial curve, poor fit] | –
CCOC(=O)c1c(C)[nH]c(C(=O)OCC(=O)Nc2cc(C)c(Cl)cc2OC)c1C | active: 4.61 µM | –
COC(=O)C1CCN(Cc2ccc3c(c2)CN(C(=O)c2cc(-c4ccc(C)o4)[nH]n2)CCO3)CC1 | inconclusive [inhibitor, full curve] | –
CCN(CCO)c1nc(N2CCCCC2)c2cnn(C)c2n1 | inconclusive [inhibitor, single point] | –
Cc1ccc(CN2CCN(Cc3nc4c(s3)CCCC4)CC2CCO)cc1 (stereo not drawn) | inconclusive [inhibitor, single point] | –
CCc1ccc(OCC(=O)Nc2ccc(S(=O)(=O)N3CCCC3)cc2)c(Br)c1 | – | inconclusive: -32.7% [inhibitor]
CCCC(=O)O[C@@H]1C[C@@H](C)N(C(=O)c2ccccc2)c2ccc(C)cc21 | active: 20.6 µM | –
Cc1ccc(SCc2nc(-c3ccccn3)no2)cc1 | inconclusive [inhibitor, partial curve, poor fit] | –
COc1ccc(C2/C(=C(\O)c3ccc4c(c3)OCCO4)C(=O)C(=O)N2CCCN(C)C)c(OC)c1 (stereo not drawn) | inconclusive [inhibitor, single point] | –
CCCNC(=O)c1ccc(S(=O)(=O)c2ccc(OC)cc2)c([N+](=O)[O-])c1 | active: 4.11 µM | –
Cc1c(C(=O)OC/C(O)=C(\C#N)c2nc3ccccc3[nH]2)oc2ccc(Br)cc12 | inconclusive [inhibitor, single point] | –
CCOc1ccc(N(CC)C(=O)CSc2n[nH]c(-c3ccccc3)n2)cc1 | inconclusive [inhibitor, single point] | –
COCCN(CCOC)Cc1cc(=O)oc2cc(OC)ccc12 | – | inconclusive: -30.6% [inhibitor]
O=C1CSCC(=O)N1Cc1ccc(Cl)c(Cl)c1 | – | inactive: -10.2%
COc1ccc(C(C(=O)NC2CCCCC2)N(C(=O)c2ccco2)c2ccccc2C(C)=O)cc1 (stereo not drawn) | inconclusive [inhibitor, single point] | –
CCc1nnc(NC(=O)CSc2nccn2-c2cccc(C)c2)s1 | – | inactive: -13.3%
Cn1c(-c2sccc2OCc2cccc(C(F)(F)F)c2)n[nH]c1=S | inconclusive [inhibitor, single point] | –
Cc1cc(C(=O)N/N=C/C=C/c2ccccc2[N+](=O)[O-])c(C)o1 | – | inactive: -28.8%

Structure (SMILES) | Potency | activity change, negative = growth inhibition
O=C(CSc1n[nH]c(-c2ccccc2Cl)n1)N1CCN(c2ccccc2F)CC1 | inconclusive [inhibitor, partial curve] | –
Fc1ccc(NC(=S)N2CCCN(c3ccc(C(F)(F)F)cn3)CC2)c(F)c1 | active: 18.4 µM | –
COc1ccc(NC(=O)NCc2ccco2)c(OC)c1 | inconclusive [inhibitor, single point] | –
C[C@](O)(C(=O)Nc1ccc(S(=O)(=O)c2ccccc2)cc1)C(F)(F)F | inconclusive [inhibitor, partial curve, poor fit] | –
O=C(COC(=O)c1ccc(O)cc1)Nc1cc(S(=O)(=O)N2CCOCC2)ccc1Cl | – | inactive: -29.3%
Cc1oc(-c2ccc(C(=O)NCc3ccccc3)cc2)nc1CS(=O)(=O)c1ccccc1 | inconclusive [inhibitor, partial curve] | –
CCOC(=O)C1=NN(c2cccc(C)c2)C2(S1)SC(C(C)=O)=C(C)N2c1ccccc1 (stereo not drawn) | – | inactive: 22.6%
COc1ccc(-c2cc(=O)n(-c3ccc([N+](=O)[O-])cc3)[nH]2)cc1 | active: 16.4 µM | –
CC1=C(C(=O)Nc2cccnc2)C(c2ccccc2)n2nc(SCc3ccccc3F)nc2N1 (stereo not drawn) | inconclusive [inhibitor, partial curve, poor fit] | –
Cc1ccc(N(CCC#N)C(=O)COC(=O)c2ccccc2SCC(=O)N2CCCC2)cc1 | inconclusive [inhibitor, single point] | –
Cc1cc(C)cc(N(CC(=O)Nc2cccc(C)n2)S(=O)(=O)c2c(C)noc2C)c1 | active: 13 µM | –
COc1ccc(-c2ccc3oc(-c4ccc(OC)cc4)c(C#CC4(O)CCCCC4)c3c2)cc1 | inconclusive [inhibitor, single point] | –
Clc1cccc(-c2nnc(SCc3nc4ccccc4[nH]3)n2Cc2ccco2)c1 | inconclusive [inhibitor, partial curve] | –
COc1ccc(C(=O)C2CCN(C(=S)NCCc3ccc(OC)c(OC)c3)CC2)cc1 | active: 11.6 µM | –
O=C(c1ccco1)N1CCN(C(=O)N2c3ccccc3Sc3ccccc32)CC1 | active: 0.631 µM | –
CC1Cc2ccccc2N1Cc1cccc([N+](=O)[O-])c1 (stereo not drawn) | – | inactive: -1.47%
CC(C)CNC(=O)c1cccc(NC(=O)COc2cccc([N+](=O)[O-])c2)c1 | inconclusive [inhibitor, partial curve] | –
COC(=O)c1ccc(N2CCOCC2)c(NC(=O)c2ccc3c(c2)OCO3)c1 | inconclusive [inhibitor, single point] | –
COc1ccc(CCN2C(=O)N(c3ccc(F)cc3)C(=O)C2CC(=O)Nc2ccc(F)c(F)c2)cc1 (stereo not drawn) | active: 20.6 µM | –
CCCCN(Cc1ccc(Cl)c(Cl)c1)c1ccc(Br)cn1 | inconclusive [inhibitor, single point] | –
COc1ccc(S(=O)(=O)N2CCN(CC(=O)NC(C)c3cccs3)CC2)cc1 (stereo not drawn) | – | inconclusive: -26.4% [inhibitor]
O=S(=O)(Nn1cnnc1)c1ccccc1 | – | inactive: -2.44%
Cc1noc(/C=C/Nc2ccc(F)cc2F)c1[N+](=O)[O-] | inconclusive [inhibitor, single point] | –

Structure (SMILES) | Potency | activity change, negative = growth inhibition
N#CC1(C#N)C(C(=O)C23CC4CC(CC(C4)C2)C3)C12CCOCC2 (stereo not drawn) | – | inconclusive: -33.4% [inhibitor]
c1cc2c3c(cccc3c1)NN=N2 | inconclusive [inhibitor, single point] | –
COc1ccc(C(=O)Nc2nnc(C3=COCCO3)o2)cc1OC | – | inactive: -10.1%
CCOc1ccc(N(CC(=O)NCc2ccc(Cl)cc2)S(=O)(=O)c2c(C)noc2C)cc1 | inconclusive [inhibitor, partial curve] | –
Cc1noc(C)c1C(=O)N1CCC(Cc2ccccc2)CC1 | inconclusive [inhibitor, single point] | –
C=CCOc1nc2c(c(=O)n(C)c(=O)n2C)n1C | – | inactive: 9.13%
CCCc1ccc(OCC(O)CN2CCN(c3ccccc3)CC2)cc1 (stereo not drawn) | inconclusive [inhibitor, partial curve] | –
Cc1ccc(S(=O)(=O)N[C@H](C(=O)N2CCC3(O)CCCCC3C2)c2ccccc2)cc1 (stereo partly drawn) | inconclusive [inhibitor, partial curve] | –
CCN(CC(=O)NC(C)(C)C)C(=O)c1cccc(S(=O)(=O)N2CC3(C)CC2CC(C)(C)C3)c1 (stereo not drawn) | inconclusive [inhibitor, single point] | –
Cc1nn(Cc2nnc(SCC(=O)Nc3ccc(Cl)cc3)n2C)c(C)c1[N+](=O)[O-] | inconclusive [inhibitor, single point] | –
O=C(CNc1ccc(Cl)c(C(F)(F)F)c1)N1CCN(S(=O)(=O)c2ccccc2)CC1 | inconclusive [inhibitor, single point] | –
CCCCn1nnnc1C(c1ccccc1)N1CCN(c2ncc(C(F)(F)F)cc2Cl)CC1 (stereo not drawn) | active: 18.4 µM | –
CC(C)CNC(=O)c1c2c(nc3ccccc13)-c1ccccc1CC2 | inconclusive [inhibitor, single point] | –
Cc1ccc2nc(-c3ccc(C)c(NC(=O)COc4ccc(Br)cc4)c3)oc2c1 | – | inactive: -12.4%
Cc1c2c(nc3ccccc13)CCC(C(C)(C)C)C2 (stereo not drawn) | inconclusive [inhibitor, single point] | –
CN1C(=O)NC(c2ccccc2)C2=C1CN(c1cccc(C(F)(F)F)c1)C2=O (stereo not drawn) | inconclusive [inhibitor, single point] | –
CC(=O)c1ccc(S(=O)(=O)NCCC(=O)N2CCN(c3ccccn3)CC2)cc1 | – | inactive: -23.6%
Cc1ccc(CN(Cc2ccco2)S(=O)(=O)c2ccc(S(=O)(=O)NCC3CCCO3)cc2)cc1 (stereo not drawn) | inconclusive [inhibitor, partial curve, poor fit] | –
Cc1cccc(N2CCN(C(=O)c3oc(=O)c4ccccc4c3-c3ccccc3)CC2)c1C | inconclusive [inhibitor, single point] | –
Cc1c(NC(=O)c2ccc(N3CCC(C)CC3)c([N+](=O)[O-])c2)cccc1-c1nc2ccccc2o1 | inconclusive [inhibitor, single point] | –
Cc1cc(NC(=O)Nc2csc3c2CCCC3)ccc1Br | active: 9.2 µM | –
COc1ccc(NC(=O)N2CC3(CCN(C(=O)c4ccncc4)CC3)C2)cc1 | – | inactive: 7.84%
